The supplement of paper PMC3334620
Whole data set: some 33,000 sequences, median “E-score (-0.5 to 0.5)” near -0.011, cut for the highest 2% near 0.28. This is one part of the list.

The sequences below were run against T1, Gcr1 (UniProt P07261) (assay: PBM E-score (8-mer binding enrichment) (E-score (-0.5 to 0.5)); higher = stronger / more preferred TF binding; most listed sequences are background and not binding sites). Settings: protein concentration: 100 nM; construct: GST-full length.
T1 sequence: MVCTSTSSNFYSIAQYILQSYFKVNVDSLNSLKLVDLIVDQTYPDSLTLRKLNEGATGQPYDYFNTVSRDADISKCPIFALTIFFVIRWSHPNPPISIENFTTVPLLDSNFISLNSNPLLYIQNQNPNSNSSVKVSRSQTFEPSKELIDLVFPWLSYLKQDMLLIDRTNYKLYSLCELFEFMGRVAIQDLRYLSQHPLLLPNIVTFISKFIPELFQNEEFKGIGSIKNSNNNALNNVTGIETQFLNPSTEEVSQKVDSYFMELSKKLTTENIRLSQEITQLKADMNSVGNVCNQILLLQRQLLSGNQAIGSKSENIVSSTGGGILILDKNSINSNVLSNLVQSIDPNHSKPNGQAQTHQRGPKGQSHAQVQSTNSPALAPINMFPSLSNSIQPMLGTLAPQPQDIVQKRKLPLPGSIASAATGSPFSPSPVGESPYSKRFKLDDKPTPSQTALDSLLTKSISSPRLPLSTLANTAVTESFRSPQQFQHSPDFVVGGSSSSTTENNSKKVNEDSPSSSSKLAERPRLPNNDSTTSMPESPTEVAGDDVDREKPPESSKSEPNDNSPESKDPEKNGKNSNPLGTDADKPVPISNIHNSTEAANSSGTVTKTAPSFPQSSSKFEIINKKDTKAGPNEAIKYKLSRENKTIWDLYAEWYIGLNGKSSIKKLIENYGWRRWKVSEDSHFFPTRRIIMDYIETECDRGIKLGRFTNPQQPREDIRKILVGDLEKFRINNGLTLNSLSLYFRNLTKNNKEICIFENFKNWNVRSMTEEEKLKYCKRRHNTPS
Experimental: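 Universal 'all 10-mer' protein binding microarrays (Agilent AMADID 015681) probed with GST-tagged S. cerevisiae TFs (full-length or DBD) made by in vitro transcription/translation (PURExpress), about 100-200 nM. Bound TF was detected with fluorescent anti-GST. Each ungapped 8-mer (which stands for itself and its reverse complement) is scored by the PBM enrichment score (E-score), a modified Wilcoxon-Mann-Whitney statistic from -0.5 to +0.5, computed with the Universal PBM Analysis Suite. Scale: above 0.35 generally sequence-specific binding.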

Sequence	PBM E-score
GGCTTTGA	-0.296
CGACCCTC	-0.122
ACATCCCA	0.0139
CAATAGAC	0.0628
GAGAGGGA	-0.149
ATCCCTAC	0.0292
AGCTAACA	-0.239
AGGCCAAT	-0.142
CCGTTAGG	0.0609
CAATCGTA	0.115
CACAGCGC	-0.0554
GTCCTAAC	0.0109
ATCCAAAG	0.189
CGCCGCCG	0.0906
AAGGGGGG	-0.427
ACTAGGGC	-0.149
TACTGGAA	0.446
GACTCTAC	-0.0308
CAGTACTG	0.089
ATGGATGC	0.389
ATTAACCG	0.119
CAATTTCA	0.211
AAAATACG	0.0697
CGGTCTAG	-0.167
GGAGGGCA	-0.199

Sequence	PBM E-score
CTTAGGGA	-0.0687
ACTCGTCA	-0.125
ACTCCATC	-0.073
AGTGTCAG	-0.142
AAGTTAGG	-0.0179
CAGCACAC	-0.251
ACAACAAG	0.0442
GTGTATCA	-0.0606
GGACCCTA	0.114
GCTGCGGA	0.201
CGAGTAAC	-0.0385
CCCCAACG	-0.0912
ACTTCCCC	0.0219
TTCGACAA	-0.00344
ACGTGCAT	-0.189
CTAGCACA	-0.181
ATATGGCA	-0.16
CACCCACG	0.154
GCTGCCAA	0.31
GATGTTGC	0.0171
ACAGACTC	-0.182
CCGTTTAA	0.179
AGTGTCTC	-0.0403
AATCCTCG	0.0219
ACCAGTTA	0.0951

Sequence	PBM E-score
CGCTGTCA	-0.0403
GTTCTTCA	0.0436
AAATCGTA	0.0191
GTGTGTGA	0.0832
ATGGCAAC	0.21
GAATGGTA	0.105
CACACAGG	0.00475
AAGATCGT	0.131
ATGGTAAA	-0.154
CGGAATAA	-0.168
CTTTTTAC	0.19
AGTTCTTG	-0.139
CACTGCAC	-0.29
CCCGGATC	0.256
TGCACAAA	0.034
AGCCATAC	0.0935
AAAGATCC	0.172
AGGTTCCG	0.205
CTCTTTTA	-0.169
CAGGGTCG	-0.171
CCAGAACC	0.274
CCAAAGCA	-0.0555
AATTACCC	0.107
ATCCTTGC	-0.034
AACCATTG	-0.0706

Sequence	PBM E-score
GAAATGAA	0.11
CAGAATGA	0.0651
ACTACCTA	0.0863
GGTTTGCA	0.0915
AGCTTGGG	-0.116
CGACGAAG	-0.219
GTGTAGAA	-0.0005
CTATAGAC	-0.109
GCTCTGCC	-0.192
CCCTAGCA	0.0999
CAGCGTCA	-0.0226
CCAGGTCA	-0.0391
AGCAAACA	0.0357
GGGTTAAC	0.0316
CATTGAGA	0.11
GGATTCCC	0.418
CATTGCGA	-0.0583
AGTTCCTG	0.0262
CGTTCAAA	0.097
CCTCTTAC	0.142
TGGCTCAA	0.0942
AATCTGAT	0.0293
ACGACGGG	0.00739
CTCATGCC	-0.195
AGCGAGAC	-0.0269

Sequence	PBM E-score
CTTTTGTA	0.198
CTGCACCA	0.0368
CCAGGCAA	-0.0954
CCTAGTAC	-0.0431
GTGGTGAA	0.0386
TGCAACCA	0.261
CCTGGACA	0.0432
CACGGGCA	-0.0825
ATTCCCCA	0.11
GGTTATCA	-0.0236
AACTTTGT	-0.09
CTTCTGGC	0.144
CAGTAACC	0.133
GGACCTAA	0.0865
CATTCACG	-0.209
GGTGTGGA	0.0228
CGCCTTAA	0.0432
CGTGGAAG	0.0771
GGGGGACA	0.0151
CCCTTAAC	-0.212
AGACCCTC	-0.115
ATCACTTC	0.101
CGCCATGC	-0.179
ATATAATA	0.0837
CACGCGTC	0.176

Sequence	PBM E-score
GGGTAACA	-0.155
AGAGGTCA	-0.0765
CGCCGTGA	-0.0716
CACGGGGC	-0.0351
CGTATTAG	0.199
TCTAGAGA	-0.102
CAGTGATC	-0.0596
CCATAATA	0.112
CCCTGAGG	-0.102
AGATAGTC	-0.267
AAAAGGTT	-0.037
ATTCATCC	-0.0901
GTTTCTTA	-0.0303
CCCATCGC	-0.0707
AGTGGCCG	0.149
CGTGACCC	-0.141
AGATCGAA	-0.0692
GGCTGAAA	0.151
CTCTCGCC	-0.0249
GAATTACA	0.181
GCGGGAAA	0.107
ATGTCGGA	0.159
CCTTGGAG	-0.0157
AACGATTG	-0.111
AAATTGGA	0.249

Sequence	PBM E-score
ACCAGGTA	-0.0515
AGGTAGTG	-0.0355
ACCGTCCT	-0.196
CAATGAGA	-0.137
ACGGTTAT	-0.00278
CCGTTGCG	-0.113
CACACGTA	-0.173
ATCCCTAA	-0.148
CGGCCAAC	-0.171
GCAGCGGC	0.106
AAAGCCGC	0.0398
GAGTGTGA	-0.181
GAGAAACA	0.0834
CGGAGGGA	0.0238
GAGATGGA	-0.246
CGCAAAGC	-0.125
ACGAGGGA	-0.0629
CTCCGAAA	0.149
ACCCATCT	-0.085
CCACTTGC	0.147
ATCTCCGC	0.118
GGTATGTA	-0.0354
